Laboratory results published in the antibiotic and cytotoxicity screens of Wong et al. (2023).
The other results are listed elsewhere or left out.

What was measured:
HSkMC = human skeletal muscle cells; experiment: cytotoxicity call (relative viability < 0.9); conditions: 10 µM
HepG2 = experiment: cytotoxicity call (relative viability < 0.9); conditions: 10 µM
S. aureus RN4220 = experiment: growth inhibition call (relative growth <= 0.2); conditions: 50 µM

Structure (SMILES) | cytotoxicity call (HSkMC) | cytotoxicity call (HepG2) | growth inhibition call (S. aureus RN4220)
O=C(C[C@@H]1CC[C@@H]2[C@H](COC[C@@H](O)CN2S(=O)(=O)c2ccccc2)O1)NCc1ccc(-c2ccccc2)cc1 | inactive | inactive | inactive
CC(C)NC(=O)Nc1ccc2c(c1)CC(=O)N([C@H](C)CO)C[C@@H](C)[C@@H](CN(C)Cc1ccc(C(=O)O)cc1)O2 | inactive | inactive | inactive
C[N+](C)(C)C[C@@H](O)CC(=O)O | inactive | inactive | inactive
Cc1noc(C)c1S(=O)(=O)Nc1ccc2c(c1)C(=O)N([C@H](C)CO)C[C@@H](C)[C@H](CN(C)S(C)(=O)=O)O2 | inactive | inactive | inactive
C[C@@H]1CN([C@H](C)CO)C(=O)Cc2cc(NC(=O)Nc3ccc4c(c3)OCO4)ccc2O[C@H]1CN(C)C(=O)Nc1ccc(C(F)(F)F)cc1 | inactive | inactive | inactive
CO[C@@H]1CN(C)C(=O)c2ccc(NC(=O)Nc3ccccc3F)cc2OC[C@@H](C)N(CCC(F)(F)F)C[C@H]1C | inactive | inactive | inactive
C[C@@H]1CN([C@H](C)CO)C(=O)c2cc(NC(=O)Nc3ccc(C(F)(F)F)cc3)ccc2O[C@@H](C)CCCCO[C@H]1CN(C)S(=O)(=O)c1cn(C)cn1 | inactive | inactive | inactive
CCCN(C)C[C@@H]1OCCCC[C@@H](C)Oc2ccc(NS(=O)(=O)c3ccc(Cl)cc3)cc2C(=O)N([C@H](C)CO)C[C@@H]1C | inactive | inactive | inactive
O=C(C[C@@H]1C=C[C@H](NC(=O)c2cccnc2)[C@H](CO)O1)NCc1ccncn1 | inactive | inactive | inactive
C[C@H]1CN([C@@H](C)CO)C(=O)Cc2cc(NS(C)(=O)=O)ccc2O[C@H]1CN(C)Cc1ccc(C(=O)Nc2ccccc2N)cc1 | inactive | inactive | inactive
Nc1cncc(Cl)n1 | inactive | inactive | inactive
Cc1ccc(S(=O)(=O)Nc2ccc3c(c2)C(=O)N([C@H](C)CO)C[C@@H](C)[C@@H](CN(C)Cc2ccncc2)OCCCC[C@@H](C)O3)cc1 | inactive | inactive | inactive
COc1ccc(CN(C)C[C@@H]2OCCCC[C@H](C)Oc3ccc(NC(=O)CCC(F)(F)F)cc3C(=O)N([C@H](C)CO)C[C@H]2C)cc1 | inactive | inactive | inactive
Cc1noc(C)c1S(=O)(=O)Nc1ccc2c(c1)C(=O)N([C@H](C)CO)C[C@H](C)[C@@H](CN(C)S(=O)(=O)c1cccs1)O2 | inactive | inactive | inactive
C[C@H](CO)N1C[C@H](C)[C@H](CN(C)Cc2ccc(F)cc2)Oc2cc(C#CCN(C)C)ccc2S1(=O)=O | inactive | active | inactive
CC(C)NC(=O)Nc1ccc2c(c1)C(=O)N([C@@H](C)CO)C[C@@H](C)[C@H](CN(C)C(=O)Nc1ccccc1)OCCCC[C@@H](C)O2 | inactive | inactive | inactive
C[C@@H]1CN([C@@H](C)CO)S(=O)(=O)c2ccc(C#Cc3cccnc3)cc2O[C@H]1CN(C)C(=O)CN(C)C | inactive | inactive | inactive
CC1(C)C(=O)NCCN1C(=O)c1ccco1 | inactive | inactive | inactive
C[C@H](CO)N1C[C@H](C)[C@@H](CN(C)C(=O)c2ccccn2)Oc2cc(C#Cc3ccc(F)cc3)ccc2S1(=O)=O | inactive | inactive | inactive
CN(C)CCCNC(=O)C[C@@H]1CC[C@@H]2[C@H](COC[C@H](O)CN2S(=O)(=O)c2ccc(F)cc2)O1 | inactive | inactive | inactive
C[C@@H]1CCCCO[C@@H](CN(C)Cc2ccc(C(=O)O)cc2)[C@@H](C)CN([C@H](C)CO)C(=O)c2cc(NC(=O)Nc3ccccc3)ccc2O1 | inactive | inactive | inactive
Cl.O=C(COc1ccc(Cl)cc1)N1CCN(Cc2ccc3c(c2)OCO3)CC1 | inactive | inactive | inactive
C[C@H](CO)N1C[C@H](C)[C@H](CN(C)Cc2ccc(C(=O)O)cc2)OCCCC[C@H](C)Oc2ccc(NC(=O)Nc3ccc(F)cc3)cc2C1=O | inactive | inactive | inactive
C[C@@H]1CN([C@H](C)CO)C(=O)c2cc(NC(=O)C3CCCCC3)ccc2O[C@@H](C)CCCCO[C@@H]1CN(C)C(=O)NC1CCCCC1 | inactive | inactive | inactive
CCOC(=O)CCCCCC(=O)Nc1ccc2c(c1)C(=O)N([C@H](C)CO)C[C@@H](C)[C@@H](CN(C)S(=O)(=O)c1ccc(C)cc1)OCCCC[C@H](C)O2 | inactive | inactive | inactive
Cc1ccc(S(=O)(=O)Nc2ccc3c(c2)CC(=O)N([C@H](C)CO)C[C@@H](C)[C@@H](CN(C)S(=O)(=O)c2ccc(F)cc2)O3)cc1 | inactive | inactive | inactive
O=C(CCCCC(=O)N/N=C/[C@@H](O)[C@@H](O)[C@H](O)[C@H](O)CO)NO | inactive | inactive | inactive

Structure (SMILES) | cytotoxicity call (HSkMC) | cytotoxicity call (HepG2) | growth inhibition call (S. aureus RN4220)
C[C@H](CO)N1C[C@H](C)[C@@H](CN(C)S(C)(=O)=O)Oc2ccc(NC(=O)CCCCCC(=O)Nc3ccccc3N)cc2C1=O | inactive | inactive | inactive
O=C(C[C@@H]1C[C@@H]2c3cc(NS(=O)(=O)c4ccc(F)cc4)ccc3O[C@@H]2[C@H](CO)O1)NCc1ccccc1F | inactive | inactive | inactive
O=C(C[C@H]1C=C[C@@H](NC(=O)c2ccc3c(c2)OCO3)[C@@H](CO)O1)NCc1ccc(Oc2ccccc2)cc1 | inactive | inactive | inactive
COc1ccc2nc(S(=O)Cc3ncc(C)c(OC)c3C)[nH]c2c1 (configuration not stated) | inactive | inactive | inactive
COc1ccc(C#Cc2ccc3c(c2)O[C@@H](CN(C)S(=O)(=O)c2ccccc2F)[C@@H](C)CN([C@H](C)CO)S3(=O)=O)cc1 | inactive | inactive | inactive
C[C@@H]1CN([C@H](C)CO)C(=O)c2cc(/C=C/c3ccccc3)cnc2O[C@@H]1CN(C)C(=O)C1CCOCC1 | inactive | inactive | inactive
COc1ccc(S(=O)(=O)Nc2ccc3c(c2)C(=O)N([C@H](C)CO)C[C@H](C)[C@@H](CN(C)Cc2ccc(C(F)(F)F)cc2)OCCCC[C@@H](C)O3)cc1 | active | inactive | inactive
COc1ccc(NC(=O)N(C)C[C@@H]2Oc3ccc(NC(=O)C4CC4)cc3C(=O)N([C@@H](C)CO)C[C@H]2C)cc1 | inactive | inactive | inactive
C[C@@H]1CN([C@H](C)CO)C(=O)Cc2cc(NC(=O)NC3CCCCC3)ccc2O[C@H]1CN(C)C(=O)Nc1ccc(C(F)(F)F)cc1 | inactive | inactive | inactive
Cc1noc(C)c1NC(=O)Nc1ccc2c(c1)CC(=O)N([C@@H](C)CO)C[C@H](C)[C@@H](CN(C)Cc1ccc(Cl)c(Cl)c1)O2 | inactive | inactive | inactive
Cn1c(=O)c2c(ncn2CC(=O)N2CCN(c3ccccc3)CC2)n(C)c1=O | inactive | inactive | inactive
CN1C(=O)c2cc(NC(=O)C3CCOCC3)ccc2OC[C@H]2O[C@H](CC(=O)NCc3ccc4c(c3)OCO4)CC[C@H]21 | inactive | inactive | inactive
Cc1ccc(S(=O)(=O)N2C[C@@H](O)COC[C@H]3O[C@H](CC(=O)NCc4ccc(Cl)cc4)CC[C@@H]32)cc1 | inactive | inactive | inactive
COc1ccc(NC(=O)N(C)C[C@@H]2Oc3ccc(NC(=O)Nc4ccc(C(F)(F)F)cc4)cc3C(=O)N([C@H](C)CO)C[C@H]2C)cc1 | inactive | inactive | inactive
COc1ccc(NC(=O)Nc2ccc3c(c2)C(=O)N([C@@H](C)CO)C[C@H](C)[C@H](CN(C)C(=O)Nc2ccccc2)OCCCC[C@@H](C)O3)cc1 | inactive | inactive | inactive
C[C@@H]1CN([C@H](C)CO)C(=O)c2cc(NC(=O)C3CCCCC3)ccc2O[C@@H](C)CCCCO[C@H]1CN(C)Cc1ccccc1 | inactive | inactive | inactive
C[C@H](CO)N1C[C@H](C)[C@H](CN(C)Cc2ccc(C(=O)Nc3ccccc3N)cc2)Oc2ccc(NC(=O)Nc3ccc(C(F)(F)F)cc3)cc2CC1=O | inactive | active | inactive
C[C@H](CO)N1C[C@H](C)[C@@H](CN(C)C(=O)C2CCCCC2)OCCCC[C@H](C)Oc2ccc(NS(=O)(=O)c3ccc(Cl)cc3)cc2C1=O | inactive | inactive | inactive
COc1ccc(NC(=O)N(C)C[C@@H]2Oc3ccc(NC(=O)Nc4ccc(C(F)(F)F)cc4)cc3CC(=O)N([C@@H](C)CO)C[C@@H]2C)cc1 | inactive | inactive | inactive
COC(=O)N[C@H](C(=O)N1CCC[C@H]1c1nc(-c2ccc(-c3ccc(-c4c[nH]c([C@@H]5CCCN5C(=O)[C@@H](NC(=O)OC)C(C)C)n4)cc3)cc2)c[nH]1)C(C)C | inactive | inactive | inactive
CN(C)C(=O)N1CCNCC1 | inactive | inactive | inactive
CC(C)NC(=O)N(C)C[C@@H]1Oc2ccc(NS(=O)(=O)c3cn(C)cn3)cc2CC(=O)N([C@H](C)CO)C[C@H]1C | inactive | inactive | inactive
COc1ccc(CNC(=O)c2cc3c(c(-c4cccc(-c5ccc(C#N)cc5)c4)n2)[C@@H](CCO)N([S@](=O)C(C)(C)C)C3)cc1 | inactive | inactive | inactive
Cc1noc(C)c1S(=O)(=O)Nc1ccc2c(c1)C(=O)N([C@@H](C)CO)C[C@@H](C)[C@H](CN(C)Cc1ccc(C(=O)O)cc1)O2 | inactive | inactive | inactive
CN1CCNC1=S | inactive | inactive | inactive
C[C@H](CO)N1C[C@H](C)[C@@H](CN(C)S(=O)(=O)c2ccc(Cl)cc2)OCCCC[C@H](C)Oc2ccc(NS(=O)(=O)c3ccccc3)cc2C1=O | inactive | inactive | inactive
Cc1noc(C)c1NC(=O)Nc1ccc2c(c1)C(=O)N([C@@H](C)CO)C[C@@H](C)[C@@H](CN(C)Cc1ccc(C(=O)O)cc1)OCCCC[C@H](C)O2 | inactive | inactive | inactive
